Reference: patent US20120148575A1 (AstraZeneca / MedImmune, published 2012)

Key:
Experiment in all cases: flow cytometry on transgenic cells
[1] = target: T1, mutant human IL-5Ralpha protein comprising the I61K amino acid substitution (human, UniProt Q01344 21-420)
T1 construct: On transgenic cells; also called knock out-I61
T1 sequence: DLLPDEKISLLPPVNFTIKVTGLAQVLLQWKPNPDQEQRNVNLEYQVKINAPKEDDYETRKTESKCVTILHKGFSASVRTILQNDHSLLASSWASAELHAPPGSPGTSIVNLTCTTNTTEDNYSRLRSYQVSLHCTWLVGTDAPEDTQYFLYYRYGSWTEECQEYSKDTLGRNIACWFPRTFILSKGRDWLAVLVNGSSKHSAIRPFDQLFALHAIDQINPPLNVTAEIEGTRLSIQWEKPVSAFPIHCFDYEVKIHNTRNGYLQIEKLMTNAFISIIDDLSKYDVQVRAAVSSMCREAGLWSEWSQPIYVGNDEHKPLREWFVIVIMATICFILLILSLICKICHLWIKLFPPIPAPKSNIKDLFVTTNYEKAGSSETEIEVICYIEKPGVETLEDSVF

[2] = target: T2, mouse IL-5Ralpha protein (mouse, UniProt P21183 18-415)
T2 construct: also called mouse IL-5Ralpha receptor
T2 sequence: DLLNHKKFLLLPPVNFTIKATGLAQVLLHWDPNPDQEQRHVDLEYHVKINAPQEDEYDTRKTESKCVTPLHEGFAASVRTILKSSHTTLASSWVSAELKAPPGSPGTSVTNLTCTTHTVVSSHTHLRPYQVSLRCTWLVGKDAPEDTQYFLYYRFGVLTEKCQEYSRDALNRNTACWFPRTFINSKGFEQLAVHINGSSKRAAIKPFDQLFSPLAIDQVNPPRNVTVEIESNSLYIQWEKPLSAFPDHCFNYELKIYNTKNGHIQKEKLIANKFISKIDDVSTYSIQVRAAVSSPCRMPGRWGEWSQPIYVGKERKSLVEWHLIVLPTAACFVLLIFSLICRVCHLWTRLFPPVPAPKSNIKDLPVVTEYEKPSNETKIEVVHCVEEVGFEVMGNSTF

[3] = target: T3, mutant human IL-5Ralpha protein comprising the K53Q, D56E, E58D, I61K amino acid substitutions (human, UniProt Q01344 21-420)
T3 construct: On transgenic cells; also called knock out-KDEI
T3 chain: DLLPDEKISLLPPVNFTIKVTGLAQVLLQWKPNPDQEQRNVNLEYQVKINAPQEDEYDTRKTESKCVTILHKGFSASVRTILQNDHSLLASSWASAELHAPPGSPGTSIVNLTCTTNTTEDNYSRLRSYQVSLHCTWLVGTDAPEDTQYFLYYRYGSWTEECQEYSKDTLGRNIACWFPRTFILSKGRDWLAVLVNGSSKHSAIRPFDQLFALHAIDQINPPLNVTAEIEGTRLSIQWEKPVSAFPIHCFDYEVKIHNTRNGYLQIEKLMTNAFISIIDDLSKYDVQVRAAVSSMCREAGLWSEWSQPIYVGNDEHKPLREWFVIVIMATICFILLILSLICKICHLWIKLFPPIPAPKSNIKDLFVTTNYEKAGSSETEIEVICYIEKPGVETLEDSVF

Measured: binding result

B1: MEDI-563, humanized afucosylated IgG1 anti-IL-5R alpha chain monoclonal antibody (antibody)
heavy: EVQLVQSGAEVKKPGASVKVSCKASGYTFTSYVIHWVRQRPGQGLAWMGYINPYNDGTKYNERFKGKVTITSDRSTSTVYMELSSLRSEDTAVYLCGREGIRYYGLLGDYWGQGTLVTVSS[gap - human IgG1 constant region]
light: DIQMTQSPSSLSASVGDRVTITCGTSEDIINYLNWYQQKPGKAPKLLIYHTSRLQSGVPSRFSGSGSGTDFTLTISSLQPEDFATYYCQQGYTLPYTFGQGTKVEIKRTVAAPSVFIFPPSDEQLKSGTASVVCLLNNFYPREAKVQWKVDNALQSGNSQESVTEQDSKDSTYSLSSTLTLSKADYEKHKVYACEVTHQGLSSPVTKSFNRGEC
modifications: Fc N-glycan without fucose (afucosylated, Potelligent); the letters cannot carry it.
notes: Humanized, afucosylated IgG1 (Potelligent technology); also called BIW-8405; copies: 2 + 2
no binding: [1] | [2] | [3]
